In the supplement of paper PMC10670038:
Counter-ions that a name gives are not always drawn. ± gives the standard deviation of the averaged measurements. The full ranking holds about 2,000 compounds; the median of “relative cell viability vs DMSO, compound + 0.2 uM CuET” is about 1, and the lowest 2% start at about 0.25. The list shows a part of the results.

These compounds were tested on TE10 (assay: relative cell viability vs DMSO, compound + 0.2 uM CuET (fraction); TE10 is an esophageal squamous carcinoma line; higher = less cytotoxic). Settings: 2 µM; co-treatment: CuET (bis(diethyldithiocarbamate)copper) 0.2 uM; 48 h.
Description: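 TE10 ESCC cells (1,000/well, 384-well plates) were treated with Selleck bioactive library compounds at 2 uM combined with 0.2 uM CuET (copper diethyldithiocarbamate) for 48 h. Viability was read by CellTiter-Glo and expressed relative to DMSO wells. Two technical replicates (A, B).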
Compound `Cc1cc2c(C(C)C)c(O)c(O)c(C=O)c2c(O)c1-c1c(C)cc2c(C(C)C)c(O)c(O)c(C=O)c2c1O` [Gossypol] has a relative cell viability of 0.73 ± 0.078. With `Cc1cc2c(C(C)C)c(O)c(O)c(C=O)c2c(O)c1-c1c(C)cc2c(C(C)C)c(O)c(O)c(C=O)c2c1O` the relative cell viability was 0.744 ± 0.063. With `CC(C)NCC(O)c1ccccc1Cl` (stereo not drawn) [Clorprenaline HCl] the relative cell viability was 1.22 ± 0.12. `O=c1[nH]c2ccc(Cl)cc2c(N[C@@H]2CN3CCC2CC3)c1-c1nc2ccccc2[nH]1` gave a relative cell viability of 0.813 ± 0.024. In the case of `CCN(CC)C(=O)c1ccc(C2=CC3(CCNCC3)Oc3cccc(O)c32)cc1`, the relative cell viability is reported as 0.973 ± 0.04. In the case of `C[C@]12CCC(=O)C(O)=C1CC[C@@H]1[C@@H]2CC[C@]2(C)C(=O)CC[C@@H]12` [Formestane], the relative cell viability is reported as 1.165 ± 0.0091. Work on `CCOc1ccccc1-n1c(C(C)N2CCN(C(=O)COc3ccc(Cl)cc3)CC2)nc2ccccc2c1=O` (stereo not drawn) [Erastin] yielded a relative cell viability of 0.859 ± 0.025. With `CN1[C@@H]2CC[C@H]1C[C@@H](OC(=O)C(CO)c1ccccc1)C2` (stereo partly drawn) [Atropine] the relative cell viability was 0.8202 ± 0.0076. For `CCC1=C[C@H]2CN3CCc4c([nH]c5ccccc45)[C@](C(=O)OC)(C2)[C@H]13` [Catharanthine], the relative cell viability was 1.11 ± 0.09. Work on `CNCC(O)c1ccc(O)cc1` (stereo not drawn) [Synephrine] yielded a relative cell viability of 1.108 ± 0.0039. `CNCC(O)c1ccc(O)cc1` (stereo not drawn) [Synephrine HCl] was tested, and the relative cell viability was 1.16 ± 0.028. `CCc1c(C(=O)C(N)=O)c2c(OCC(=O)O)cccc2n1Cc1ccccc1` gave a relative cell viability of 1.14 ± 0.12. `Cc1sc2c(c1C)C(c1ccc(Cl)cc1)=N[C@@H](CC(=O)Nc1ccc(O)cc1)c1nnc(C)n1-2` gave a relative cell viability of 0.666 ± 0.046. For `COc1ccc(C(CN(C)C)C2(O)CCCCC2)cc1` (stereo not drawn) [Venlafaxine], the relative cell viability was 1.08 ± 0.15. `Cc1cccc(C)c1NC(=O)CN1CCCC1=O` [Nefiracetam] showed a relative cell viability of 1.14 ± 0.013. For `Cc1cccc(Cc2c[nH]cn2)c1C` [Detomidine HCl], the relative cell viability was 1.07 ± 0.12. `N#CC(C#N)=Cc1ccc(O)c(O)c1` gave a relative cell viability of 0.937 ± 0.14. `Cn1cc(C2=C(c3cn(C4CCN(Cc5ccccn5)CC4)c4ccccc34)C(=O)NC2=O)c2ccccc21` was tested, and the relative cell viability was 1.16 ± 0.22. In the case of `C=CCN1CC[C@]23c4c5ccc(O)c4O[C@H]2C(=O)CC[C@@]3(O)[C@H]1C5` [Naloxone HCl Dihydrate], the relative cell viability is reported as 1.17 ± 0.097. With `C[C@@H]1CC[C@@]2(OC1)O[C@H]1C[C@H]3[C@@H]4CC=C5C[C@@H](O[C@@H]6O[C@H](CO)[C@@H](O[C@@H]7O[C@@H](C)[C@H](O)[C@@H](O)[C@H]7O)[C@H](O)[C@H]6O[C@@H]6O[C@@H](C)[C@H](O)[C@@H](O)[C@H]6O)CC[C@]5(C)[C@H]4CC[C@]3(C)[C@H]1[C@@H]2C` [Dioscin] the relative cell viability was 0.265 ± 0.027. `O=C(NCC1CCOCC1)c1cnc(Nc2ccc(Cl)cc2Cl)nc1C(F)(F)F` was tested, and the relative cell viability was 1.04 ± 0.043. Compound `O=C1C=CC[C@@H]2[C@H]3CCCN4CCC[C@@H](CN12)[C@@H]34` [Sophocarpine] has a relative cell viability of 0.9413 ± 0.0051. `CC(=O)O[C@H]1C[C@@H]2CC[C@@H]3[C@H](CC[C@@]4(C)[C@H]3C[C@H]([N+]3(C)CCCCC3)[C@@H]4OC(C)=O)[C@@]2(C)C[C@@H]1[N+]1(C)CCCCC1` [Pancuronium dibromide] gave a relative cell viability of 1.004 ± 0.0074. `c1ccc2c(c1)Nc1ccccc1S2` [Phenothiazine] was tested, and the relative cell viability was 1.06 ± 0.12. `CN1CCCCC1Cn1cc(C(=O)c2cc([N+](=O)[O-])ccc2I)c2ccccc21` (stereo not drawn) gave a relative cell viability of 0.895 ± 0.05. Work on `O=c1ccc2cc(O[C@@H]3O[C@H](CO)[C@@H](O)[C@H](O)[C@H]3O)c(O)cc2o1` [Esculin] yielded a relative cell viability of 1.11 ± 0.043. With `CN(C)[C@@H]1C(=O)C(C(N)=O)=C(O)[C@@]2(O)C(=O)C3=C(O)c4c(O)cccc4[C@@](C)(O)[C@H]3C[C@@H]12` [Tetracycline HCl] the relative cell viability was 1.28 ± 0.054. `CC(NC(C)(C)C)C(=O)c1cccc(Cl)c1` (stereo not drawn) [Amfebutamone HCl] was tested, and the relative cell viability was 1.12 ± 0.019. `CC(C)[C@]12O[C@H]1[C@@H]1O[C@]13[C@]1(O[C@H]1C[C@H]1C4=C(CC[C@@]13C)C(=O)OC4)[C@@H]2O` [Triptolide (PG490)] showed a relative cell viability of 0.773 ± 0.019. Work on `CC(C)(C)c1cc(C=C(C#N)C#N)cc(Br)c1O` yielded a relative cell viability of 0.508 ± 0.18. With `O=C1CC[C@@]2(O)[C@H]3Cc4ccc(O)c5c4[C@@]2(CCN3CC2CC2)[C@H]1O5` [Naltrexone HCl] the relative cell viability was 1.018 ± 0.0067. `Cn1c(CCCC(=O)O)nc2cc(N(CCCl)CCCl)ccc21` [Bendamustine HCl] was tested, and the relative cell viability was 1.14 ± 0.11. `N[C@@H]1C[C@H]1c1ccccc1` [Tranylcypromine (2-PCPA) HCl] was tested, and the relative cell viability was 1.11 ± 0.084. Work on `CN(C)CCc1ccc(O)cc1` [Hordenine] yielded a relative cell viability of 1.1 ± 0.053. Work on `C/C(=C\c1csc(C)n1)[C@@H]1C[C@@H]2O[C@@H]2CCC[C@H](C)[C@H](O)[C@@H](C)C(=O)C(C)(C)[C@@H](O)CC(=O)O1` [Epothilone A] yielded a relative cell viability of 0.882 ± 0.11. With `COc1ccc(N(C(=O)Oc2c(C)cccc2C)c2ccnc(Nc3ccc(N4CCN(C)CC4)cc3)n2)c(OC)c1` the relative cell viability was 1.44 ± 0.13. With `COC1=C[C@@H]2[C@@H]3Cc4ccc(OC)c(O)c4[C@]2(CCN3C)CC1=O` [Sinomenine] the relative cell viability was 1.06 ± 0.09. `O=[N+]([O-])C=Cc1ccc2c(c1)OCO2` [MNS (3,4-Methylenedioxy-β-nitrostyrene, MDBN)] showed a relative cell viability of 0.293 ± 0.022. `CN1[C@@H]2C[C@@H](OC(=O)[C@H](CO)c3ccccc3)C[C@H]1[C@@H]1O[C@@H]12` [Scopolamine HBr] showed a relative cell viability of 1.031 ± 0.0073. Compound `CCOC(=O)c1cncn1[C@H](C)c1ccccc1` [Etomidate] has a relative cell viability of 1.1 ± 0.018. `CCN1CCN(C(=O)Cc2ccc(Nc3ncc(F)c(Nc4ccc(C(=O)Nc5ccccc5Cl)cc4)n3)cc2)CC1` [Aurora A Inhibitor I] was tested, and the relative cell viability was 0.182 ± 0.01. Work on `CN1CCc2cc3c(cc2C1C1OC(=O)c2c1ccc1c2OCO1)OCO3` (single isomer, unassigned; (+)) [(+)-Bicuculline] yielded a relative cell viability of 1.24 ± 0.2. Compound `CC(O)(CS(=O)(=O)c1ccc(F)cc1)C(=O)Nc1ccc(C#N)c(C(F)(F)F)c1` (stereo not drawn) [Bicalutamide] has a relative cell viability of 1.14 ± 0.015. `O=c1cccc2n1C[C@@H]1CNC[C@H]2C1` [Cytisine] gave a relative cell viability of 1.07 ± 0.033. In the case of `O=C(O)c1nn(Cc2ccc(Cl)cc2Cl)c2ccccc12` [Lonidamine], the relative cell viability is reported as 1.07 ± 0.016. `Cc1cc(C(C#N)c2ccc(Cl)cc2)c(Cl)cc1NC(=O)c1cc(I)cc(I)c1O` (stereo not drawn) [Closantel] showed a relative cell viability of 1.17 ± 0.069. In the case of `CC(C)(C)c1cc(C=C(C#N)C#N)cc(C(C)(C)C)c1O` [Tyrphostin 9], the relative cell viability is reported as 0.424 ± 0.074. Work on `c1ccc([C@@H]2C[C@H]2NC2CCNCC2)cc1` yielded a relative cell viability of 1.14 ± 0.036. `C[C@]12CC[C@H](O)CC1=CC[C@@H]1[C@@H]2CC[C@]2(C)C(=O)CC[C@@H]12` [Dehydroepiandrosterone (DHEA)] showed a relative cell viability of 1.08 ± 0.028. `CC(C)OC(=O)[C@H](C)N[P@](=O)(CO[C@H](C)Cn1cnc2c(N)ncnc21)Oc1ccccc1` [Tenofovir Alafenamide (GS-7340)] gave a relative cell viability of 1.17 ± 0.021. With `O=[N+]([O-])c1ncc[nH]1` [Azomycin] the relative cell viability was 1.09 ± 0.03. Compound `CC[C@H](C)[C@@H]([C@@H](CC(=O)N1CCC[C@H]1[C@H](OC)[C@@H](C)C(=O)N[C@H](C)[C@@H](O)c1ccccc1)OC)N(C)C(=O)[C@@H](NC(=O)[C@@H](NC)C(C)C)C(C)C` [Monomethyl auristatin E (MMAE)] has a relative cell viability of 0.681 ± 0.035. Compound `O=C(O)CNC(=O)c1c(O)c2ccccc2n(Cc2ccccc2)c1=O` has a relative cell viability of 1.07 ± 0.069. `C[N+](C)(C)CCCCCCCCCC[N+](C)(C)C` [Decamethonium Bromide] showed a relative cell viability of 0.999 ± 0.037. With `CCNC(=O)C[C@@H]1N=C(c2ccc(Cl)cc2)c2cc(OC)ccc2-n2c(C)nnc21` the relative cell viability was 0.844 ± 0.12. `CC(C)=CCC[C@]1(C)C=Cc2c(O)c3c(c(CC=C(C)C)c2O1)O[C@]12C(=C[C@@H]4C[C@H]1C(C)(C)O[C@@]2(C/C=C(/C)C(=O)O)C4=O)C3=O` [Gambogic Acid] was tested, and the relative cell viability was 0.2853 ± 0.00092. Compound `CN1c2ccccc2C(NCCCCCCC(=O)O)c2ccc(Cl)cc2S1(=O)=O` (stereo not drawn) [Tianeptine sodium] has a relative cell viability of 1.21 ± 0.12. In the case of `C[C@H]1CCC/C=C/[C@@H]2C[C@H](O)C[C@H]2[C@H](O)/C=C/C(=O)O1` [Brefeldin A], the relative cell viability is reported as 0.437 ± 0.028. Work on `CC1=C(O)C(=O)C=C2C1=CC=C1[C@@]2(C)CC[C@@]2(C)[C@@H]3C[C@](C)(C(=O)O)CC[C@]3(C)CC[C@]12C` [Celastrol] yielded a relative cell viability of 0.154 ± 0.0064. In the case of `COc1cc(-n2c(=S)[nH]c3ccccc3c2=O)c(Cl)cc1Cl` [Mdivi-1], the relative cell viability is reported as 1.28 ± 0.031. In the case of `CCCN1C[C@H](CSC)C[C@@H]2c3cccc4[nH]cc(c34)C[C@H]21` [Pergolide mesylate], the relative cell viability is reported as 1.36 ± 0.33. Compound `CC(=O)Nc1ccc(Cc2ccc(NC(C)=O)cc2)cc1` has a relative cell viability of 1.23 ± 0.095. In the case of `COc1ccc(C(=O)N2CCCC2=O)cc1` [Aniracetam], the relative cell viability is reported as 1.18 ± 0.079. `O=C(O[C@H]1C[C@H]2CC[C@@H](C1)[N+]21CCCC1)C(O)(c1ccccc1)c1ccccc1` [Trospium chloride] gave a relative cell viability of 1.14 ± 0.085. `O=C(O)CCCc1ccc(N(CCCl)CCCl)cc1` [Chloroambucil] showed a relative cell viability of 1.2 ± 0.13. `CC[C@@H](C(N)=O)N1CCCC1=O` [Levetiracetam] gave a relative cell viability of 1.18 ± 0.032. With `CN(C)Cc1c[nH]c2ccccc12` [Gramine] the relative cell viability was 1.257 ± 0.0067. Work on `NC(=O)CN1CC(O)CC1=O` (stereo not drawn) [Oxiracetam] yielded a relative cell viability of 1.14 ± 0.037. `CN1CCC(c2c[nH]c3ccc(O)cc23)CC1` was tested, and the relative cell viability was 1.23 ± 0.086. Work on `COc1cc([C@@H]2c3cc4c(cc3[C@H](O)[C@H]3COC(=O)[C@@H]23)OCO4)cc(OC)c1OC` [Picropodophyllin (PPP)] yielded a relative cell viability of 0.811 ± 0.025. For `C/C(=C\c1csc(C)n1)[C@@H]1C[C@@H]2O[C@]2(C)CCC[C@H](C)[C@H](O)[C@@H](C)C(=O)C(C)(C)[C@@H](O)CC(=O)O1` [Epothilone B (EPO906, Patupilone)], the relative cell viability was 1.05 ± 0.027. `C=CC[C@]1(O)CC[C@H]2[C@@H]3CCC4=CC(=O)CCC4=C3C=C[C@@]21C` [Altrenogest] showed a relative cell viability of 1.01 ± 0.15. For `C=C[C@H]1CN2CC[C@H]1C[C@H]2[C@H](O)c1ccnc2ccccc12` [Cinchonidine], the relative cell viability was 1.03 ± 0.057.
